pIC50: −log10 of the molar value. Counter-ions that a name gives are not always drawn.
Columns and labels:
CaV1.2 channel [1] = settings: maximum vs. minimum IC50 of Crumb et al. 2016 and Li et al. 2018
CaV1.2 channel [2] = tested on: CaV1.2 channel; design: method as in PMID 27060526; settings: manual whole cell patch clamp, 36 ± 1 °C, 4 mM Ba2+, cited from earlier work; for pIC50: rabbit ventricular AP waveform at 10 s interval, current at repolarizing phase, read-out: IC50 (Crumb et al. 2016)

Compound	Ratio (max-to-min) of IC50s (CaV1.2 channel [1])	pIC50 (CaV1.2 channel [2])	nH (Crumb et al. 2016) (CaV1.2 channel [2])
Cc1nccn1CC1CCc2c(c3ccccc3n2C)C1=O (centres unmarked) [Ondansetron]	412	4.65	0.8
CC(C)COCC(CN(Cc1ccccc1)c1ccccc1)N1CCCC1 (centres unmarked) [Bepridil]	228	5.55	0.6
COc1ccc([C@@H]2Sc3ccccc3N(CCN(C)C)C(=O)[C@@H]2OC(C)=O)cc1 [Diltiazem, diltiazem hydrochloride]	–	7.00	0.7
CN(C)CCCN1c2ccccc2Sc2ccc(Cl)cc21 [Chlorpromazine]	1.3	5.09	0.8
